Experimental data reported in the supplement of paper PMC8728848.
This is one part of the list.

What was measured:
Experiment in all cases: glycan array binding signal (z-score within array); higher = stronger binding
Details in all cases: glycan notation: IUPAC condensed, linker removed
[1] = biological target: Man(a1-2)Man(a1-3)[Man(a1-2)Man(a1-6)]Man(a1-6)[Man(a1-2)Man(a1-2)Man(a1-3)]Man
Method in brief: (§1)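 Glycan array data were curated from 3228 arrays in the Consortium for Functional Glycomics database and kept only where the protein sequence was available. Glycan names were converted to IUPAC-condensed notation, and columns mapping to the same glycan were averaged. The binding signal is a within-array Z-score, averaged across arrays of the same protein sequence at different concentrations or buffers and across linkers. Negative Z-scores can be read as non-binding.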

[2] = biological target: Man(a1-2)Man(a1-3)[Man(a1-2)Man(a1-6)]Man(a1-6)[Man(a1-2)Man(a1-2)Man(a1-3)]Man(b1-4)GlcNAc(b1-4)GlcNAc
Method in brief: as §1

[3] = biological target: Man(a1-2)Man(a1-3)[Man(a1-6)]Man(a1-6)[Man(a1-2)Man(a1-3)]Man(b1-4)GlcNAc(b1-4)GlcNAc
Method in brief: as §1

[4] = biological target: Man(a1-2)Man(a1-6)[Man(a1-3)]Man(a1-6)[Man(a1-2)Man(a1-2)Man(a1-3)]Man
Method in brief: as §1

[5] = biological target: Man(a1-2)Man(a1-6)[Man(a1-3)]Man(a1-6)[Man(a1-2)Man(a1-2)Man(a1-3)]Man(b1-4)GlcNAc(b1-4)GlcNAc
Method in brief: as §1

Man(a1-3)[Man(a1-6)]Man = biological target: Man(a1-3)[Man(a1-6)]Man
Method in brief: as §1

[6] = biological target: Man(a1-3)[Man(a1-6)]Man(a1-6)[Man(a1-2)Man(a1-3)]Man(b1-4)GlcNAc(b1-4)GlcNAc
Method in brief: as §1

[7] = biological target: Man(a1-3)[Man(a1-6)]Man(a1-6)[Man(a1-3)]Man
Method in brief: as §1

[8] = biological target: Man(a1-3)[Man(a1-6)]Man(a1-6)[Man(a1-3)]Man(b1-4)GlcNAc(b1-4)GlcNAc
Method in brief: as §1

[9] = biological target: Man(a1-3)[Man(a1-6)]Man(b1-4)GlcNAc(b1-4)GlcNAc
Method in brief: as §1

[10] = biological target: Man(a1-3)[Man(a1-6)]Man(b1-4)GlcNAc(b1-4)[Fuc(a1-6)]GlcNAc
Method in brief: as §1

Man(a1-6)Man = biological target: Man(a1-6)Man
Method in brief: as §1

Man(b1-4)GlcNAc = biological target: Man(b1-4)GlcNAc
Method in brief: as §1

MurNAc(b1-4)GlcNAc = biological target: MurNAc(b1-4)GlcNAc
Method in brief: as §1

Neu5Ac(a2-3)Gal = biological target: Neu5Ac(a2-3)Gal
Method in brief: as §1

[11] = biological target: Neu5Ac(a2-3)Gal(b1-3)GalNAc
Method in brief: as §1

[12] = biological target: Neu5Ac(a2-3)Gal(b1-3)GalNAc(b1-3)Gal(a1-4)Gal(b1-4)Glc
Method in brief: as §1

[13] = biological target: Neu5Ac(a2-3)Gal(b1-3)GalNAc(b1-4)[Neu5Ac(a2-3)]Gal(b1-4)Glc
Method in brief: as §1

[14] = biological target: Neu5Ac(a2-3)Gal(b1-3)GalNAc(b1-4)[Neu5Ac(a2-8)Neu5Ac(a2-3)]Gal(b1-4)Glc
Method in brief: as §1

[15] = biological target: Neu5Ac(a2-3)Gal(b1-3)GalNAc6S
Method in brief: as §1

[16] = biological target: Neu5Ac(a2-3)Gal(b1-3)GlcNAc
Method in brief: as §1

[17] = biological target: Neu5Ac(a2-3)Gal(b1-3)GlcNAc(b1-2)Man
Method in brief: as §1

[18] = biological target: Neu5Ac(a2-3)Gal(b1-3)GlcNAc(b1-2)Man(a1-3)[GlcNAc(b1-4)][Neu5Ac(a2-3)Gal(b1-3)GlcNAc(b1-2)Man(a1-6)]Man(b1-4)GlcNAc(b1-4)GlcNAc
Method in brief: as §1

[19] = biological target: Neu5Ac(a2-3)Gal(b1-3)GlcNAc(b1-2)Man(a1-3)[Neu5Ac(a2-3)Gal(b1-3)GlcNAc(b1-2)Man(a1-6)]Man(b1-4)GlcNAc(b1-4)GlcNAc
Method in brief: as §1

[20] = biological target: Neu5Ac(a2-3)Gal(b1-3)GlcNAc(b1-3)Gal(b1-3)GlcNAc
Method in brief: as §1

[21] = biological target: Neu5Ac(a2-3)Gal(b1-3)GlcNAc(b1-3)Gal(b1-4)GlcNAc
Method in brief: as §1

[22] = biological target: Neu5Ac(a2-3)Gal(b1-3)GlcNAc(b1-3)GalNAc
Method in brief: as §1

[23] = biological target: Neu5Ac(a2-3)Gal(b1-3)GlcNAc(b1-4)Gal(b1-4)Glc
Method in brief: as §1

[24] = biological target: Neu5Ac(a2-3)Gal(b1-3)GlcNAc(b1-6)GalNAc
Method in brief: as §1

[25] = biological target: Neu5Ac(a2-3)Gal(b1-3)GlcNAc6S
Method in brief: as §1

[26] = biological target: Neu5Ac(a2-3)Gal(b1-3)[Fuc(a1-4)]GlcNAc
Method in brief: as §1

[27] = biological target: Neu5Ac(a2-3)Gal(b1-3)[Fuc(a1-4)]GlcNAc(b1-3)Gal(b1-3)[Fuc(a1-4)]GlcNAc
Method in brief: as §1

[28] = biological target: Neu5Ac(a2-3)Gal(b1-3)[Fuc(a1-4)]GlcNAc(b1-3)Gal(b1-4)[Fuc(a1-3)]GlcNAc
Method in brief: as §1

[29] = biological target: Neu5Ac(a2-3)Gal(b1-3)[GlcNAc(b1-6)]GalNAc
Method in brief: as §1

[30] = biological target: Neu5Ac(a2-3)Gal(b1-3)[Neu5Ac(a2-6)]GalNAc
Method in brief: as §1

[31] = biological target: Neu5Ac(a2-3)Gal(b1-3)[Neu5Ac(a2-6)]GlcNAc(b1-3)[Fuc(a1-3)[Gal(b1-4)]GlcNAc(b1-6)]Gal(b1-4)Glc
Method in brief: as §1

[32] = biological target: Neu5Ac(a2-3)Gal(b1-3)]Neu5Ac(a2-3)Gal(b1-4)]GlcNAc
Method in brief: as §1

B1: SP16664D-bth-476-27-476 (Bacteroides thetaiotaomicron) (protein)
chain: DDLEVGKNIDESAYSGIYENNAYLRDGKSNLVSKVVELHGETYATTVKMGLSKTPNTATSAKVKIDAAYLETYNKAHNTDFALYPQDLVTFANEGILTVNANTKSAEVEMTIRAGEGLQEDKTYAIPVAISDQSSDITIKDEDAKHCIYLVKDMRNAGDAYKGEGVMQGYLFFEVNDVNPLNTLSFQLENGKLLWDVVVLFAANINYDAEAGRPRVQCNPNVQYLLDNNETLLQPLRRRGVKVLLGLLGNHDITGLAQLSEQGAKDFAREVAQYCKAYNLDGVNYDDEYSNSPDLSNPSLTNPSTAAAARLCYETKQAMPDKLVTVFDWGQMYGVATVDGVDAKEWIDIVVANYGSAAYPIGQMTKKQCSGISMEFNLGGGGSLSASKAQSMIDGGYGWFMGFAPSPAKYGSVFSRLQGGGEVLYGSNVAAPTIFYKKNDPTPYKYPDDL
What does the source list for B1?
glycan array binding signal (z-score) [1]: 0.008; glycan array binding signal (z-score) [2]: -0.2; glycan array binding signal (z-score) [3]: -0.209; glycan array binding signal (z-score) [4]: -0.295; glycan array binding signal (z-score) [5]: 0.353; glycan array binding signal (z-score) (Man(a1-3)[Man(a1-6)]Man): 0.164; glycan array binding signal (z-score) [6]: -0.285; glycan array binding signal (z-score) [7]: -0.025; glycan array binding signal (z-score) [8]: -0.183; glycan array binding signal (z-score) [9]: -0.049; glycan array binding signal (z-score) [10]: -0.031; glycan array binding signal (z-score) (Man(a1-6)Man): 0.047; glycan array binding signal (z-score) (Man(b1-4)GlcNAc): 0.068; glycan array binding signal (z-score) (MurNAc(b1-4)GlcNAc): -0.209; glycan array binding signal (z-score) (Neu5Ac(a2-3)Gal): -0.156; glycan array binding signal (z-score) [11]: -0.032; glycan array binding signal (z-score) [12]: -0.234; glycan array binding signal (z-score) [13]: -0.158; glycan array binding signal (z-score) [14]: 0.089; glycan array binding signal (z-score) [15]: -0.227; glycan array binding signal (z-score) [16]: -0.158; glycan array binding signal (z-score) [17]: -0.33; glycan array binding signal (z-score) [18]: -0.152; glycan array binding signal (z-score) [19]: -0.32; glycan array binding signal (z-score) [20]: -0.183; glycan array binding signal (z-score) [21]: -0.279; glycan array binding signal (z-score) [22]: -0.364; glycan array binding signal (z-score) [23]: -0.46; glycan array binding signal (z-score) [24]: 0.137; glycan array binding signal (z-score) [25]: -0.262; glycan array binding signal (z-score) [26]: -0.279; glycan array binding signal (z-score) [27]: -0.341; glycan array binding signal (z-score) [28]: -0.271; glycan array binding signal (z-score) [29]: 0.012; glycan array binding signal (z-score) [30]: -0.118; glycan array binding signal (z-score) [31]: -0.206; glycan array binding signal (z-score) [32]: -0.171
